# Laboratory results from the supplement of paper PMC3334620.
# Over roughly 33,000 sequences, “E-score (-0.5 to 0.5)” has its median near -0.054; the highest 2% begin near 0.35. The list shows a part of the results.
# Target: T1, Stb5 (UniProt P38699)
# T1 sequence: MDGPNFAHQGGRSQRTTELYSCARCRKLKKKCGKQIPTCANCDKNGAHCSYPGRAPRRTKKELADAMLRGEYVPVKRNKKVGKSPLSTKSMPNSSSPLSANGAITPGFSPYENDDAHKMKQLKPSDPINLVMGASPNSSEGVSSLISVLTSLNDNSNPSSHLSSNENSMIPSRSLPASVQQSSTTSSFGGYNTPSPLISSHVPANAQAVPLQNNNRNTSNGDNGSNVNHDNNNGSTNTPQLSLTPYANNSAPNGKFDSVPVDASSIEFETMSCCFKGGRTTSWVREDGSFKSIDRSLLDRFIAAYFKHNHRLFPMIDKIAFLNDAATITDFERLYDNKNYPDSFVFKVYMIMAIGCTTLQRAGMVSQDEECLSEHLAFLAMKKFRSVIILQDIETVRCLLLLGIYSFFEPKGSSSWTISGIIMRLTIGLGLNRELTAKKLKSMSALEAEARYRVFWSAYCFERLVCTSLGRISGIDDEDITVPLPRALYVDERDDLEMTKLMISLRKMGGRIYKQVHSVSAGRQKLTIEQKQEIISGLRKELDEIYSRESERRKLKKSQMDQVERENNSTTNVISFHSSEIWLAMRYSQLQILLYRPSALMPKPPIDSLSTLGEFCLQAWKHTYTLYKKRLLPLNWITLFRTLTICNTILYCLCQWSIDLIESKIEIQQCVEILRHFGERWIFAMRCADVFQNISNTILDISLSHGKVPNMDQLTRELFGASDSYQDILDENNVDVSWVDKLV
# Experiment: PBM E-score (8-mer binding enrichment) (E-score (-0.5 to 0.5)); higher = stronger / more preferred TF binding; most listed sequences are background and not binding sites
# Settings: protein concentration: 200 nM; construct: GST-full length
# Outline: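 Universal all-10-mer Agilent arrays, double-stranded by primer extension on fresh or once-stripped slides, were probed with about 100-200 nM GST-tagged yeast transcription factors made by PURExpress. Fluorescent anti-GST detected bound protein, and masliner normalised the scans. E-scores from the Universal PBM Analysis Suite were given to each ungapped eight-base word pooled with its reverse complement.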
row,Sequence,PBM E-score
1,TCACCCAA,-0.115
2,GCCGTCGA,0.201
3,ATTGCCGC,0.351
4,ATGGAGGG,-0.235
5,GGCTCCCA,-0.0473
6,CAACCACC,0.152
7,AGTCCATG,-0.0765
8,ACCTGAAC,-0.124
9,GCTGATCC,-0.0374
10,AGAATAAC,0.0561
11,AAAATATC,0.0946
12,CGGTACAA,0.323
13,CGGGCGAC,0.126
14,AGTCGTGA,-0.216
15,CTATGTGC,-0.0835
16,ACTAGAGA,0.0299
17,CCGGTCTC,0.217
18,AGCATGCG,-0.0356
19,AGTACTCA,-0.258
20,GGGGGTTA,0.212
21,CGCCGTCC,0.265
22,CCGGGATA,0.202
23,GTACCGGA,0.261
24,ACAAGGAA,0.104
25,CTACTATA,0.0217

row,Sequence,PBM E-score
1,GCGCGCAA,0.0868
2,ACAATCCC,0.212
3,AAGTTGGT,-0.133
4,CAAGTGTA,-0.155
5,ACCTTCCC,-0.15
6,CTAGCACC,0.336
7,AAGTTCAG,-0.373
8,AAACGCAG,-0.0173
9,AGCACTTG,-0.279
10,GACTGGTA,0.0599
11,AGTTAAGA,-0.123
12,CGCTGACC,0.0577
13,GGCGACCC,0.00378
14,GACCATAC,0.00487
15,ACGTTGGC,-0.159
16,CGTATTGC,0.119
17,AGCAGAAC,-0.119
18,CGGGAATA,0.456
19,CTTGGACC,0.0417
20,GGGGTTAC,0.397
21,TATGGTGA,-0.0877
22,CGATCCCG,0.123
23,GAGGGGCC,-0.0329
24,CTCCGCCA,0.293
25,AATATACT,-0.055

row,Sequence,PBM E-score
1,CCTTACAA,0.0129
2,AGTAGTAG,-0.0272
3,ACTTGCCC,-0.022
4,GGGACCAA,0.0158
5,GCTCAGCC,-0.145
6,CAAACTAA,0.0135
7,AAGGATTC,-0.143
8,GAGGACAA,-0.196
9,CCCTGACA,-0.0666
10,CCCCGCGA,0.272
11,ATAGCCCA,-0.245
12,TACAACGA,-0.0575
13,CAATTTGA,-0.103
14,CGGAGGTC,0.122
15,ACACGCTG,-0.195
16,CGAAACCC,0.342
17,ATAAGCTC,0.0511
18,ACTTCGCT,-0.0885
19,CATAGTTA,-0.146
20,CTGTCGGC,0.35
21,AGCGTGGC,-0.278
22,AATCTATG,-0.164
23,GATTTGAC,0.0761
24,CCAGCTGC,-0.0589
25,ATGATCCA,-0.191

row,Sequence,PBM E-score
1,ACACCATA,-0.0728
2,CCCATCTA,-0.0695
3,ACTACGTA,0.111
4,AATATTGT,0.0368
5,GCGTTTGA,-0.00629
6,AGCATATC,-0.0161
7,TAACCATA,-0.0918
8,AATCTAAC,-0.0721
9,AGCGCTAC,0.0207
10,CTGCCATA,0.0237
11,AAAGAGGG,-0.0949
12,GTAGATGA,-0.128
13,GGCGAAAC,0.0772
14,TGGATCCA,-0.224
15,AATCTTAG,-0.204
16,AGTGTTAT,-0.1
17,GATCCCAC,-0.0539
18,ATTTGCGC,0.0733
19,GGTTGGCA,-0.0738
20,CTAAGTCA,-0.215
21,CATTCGTC,-0.0324
22,AATTCGCC,0.0741
23,GCGGGCAA,0.171
24,ATAGCTGC,-0.0541
25,CCCAACTA,-0.222

row,Sequence,PBM E-score
1,CCCGAGAG,0.0886
2,CTACGTGA,-0.119
3,AGCCATCA,-0.244
4,GACTGAAA,-0.0622
5,CGAAAACC,0.0959
6,CGTTAACC,0.0895
7,AATATTAT,0.198
8,TCTAGGAA,-0.101
9,GAGAAAGA,-0.154
10,CACTACGC,-0.137
11,ATCCAGGA,-0.231
12,GAGCAAAA,-0.244
13,CTCCCTCC,-0.0908
14,CAACTGCG,0.00196
15,AACCATAC,0.0519
16,TGACTACA,-0.146
17,ACATTCGG,0.142
18,GAACAGCC,-0.134
19,CAGGTAGG,-0.138
20,CACTTGGA,-0.278
21,ACTAGTAA,-0.246
22,AGAGTCAC,-0.125
23,AGGCCCTA,-0.0592
24,AGATACTA,0.0718
25,CCACTCCC,-0.0944

row,Sequence,PBM E-score
1,ATCTATAC,0.0763
2,CGGCTTGC,0.102
3,AACACAGC,-0.0466
4,GGTTGGGA,-0.192
5,CATATCGA,0.0156
6,CAGGCGGC,0.267
7,CTCAACAC,-0.0325
8,ACACTTAT,-0.0106
9,AATCCTCT,-0.302
10,ACCGTACT,0.122
11,CACTTCAG,-0.0746
12,ACCGTTGA,0.233
13,CTGACCCC,0.078
14,ACTCCGTC,0.367
15,GCCCGAAC,0.106
16,CTCTCGGC,0.2
17,AAGTGGGA,-0.104
18,CCTCAACC,-0.221
19,AGCTAGCC,-0.165
20,GGAAGGAA,-0.0337
21,AGTCCCTC,-0.232
22,ATTCGAGA,-0.253
23,AAGGTATG,0.0318
24,ACTTGTGA,-0.262
25,ACCCACCC,0.167

row,Sequence,PBM E-score
1,GGTAGTAC,0.177
2,GACATCAA,-0.0843
3,CTCCCGCA,0.233
4,AACACAAG,-0.22
5,TGAAAACA,-0.0413
6,AGAAAGCA,-0.119
7,ATACAGAG,-0.1
8,GCCGCAAC,0.237
9,GGTGCCCA,-0.126
10,ATCAACGC,-0.202
11,AGTACGTG,-0.314
12,AAAATCCC,0.292
13,GCTGACAA,-0.0373
14,CTTGCAAC,-0.154
15,AAGCCTGA,-0.252
16,GTACTAGA,-0.0975
17,ACTTACAG,-0.0586
18,CGCGGTCA,0.21
19,ACTTAGTA,-0.0263
20,GAACCTAC,-0.143
21,ACATCGGG,0.202
22,CAGTCTCG,-0.182
23,CTCTACTA,-0.105
24,ATACAGGG,-0.0237
25,ATACGCGA,0.0474

row,Sequence,PBM E-score
1,CCGATGCA,0.231
2,AATACGAT,0.117
3,GTTGGCGA,0.0124
4,CCGGATCA,0.165
5,GATAGCGA,-0.0891
6,CCTGTGCC,-0.148
7,CTGGTCCA,0.163
8,ATACCGCA,0.325
9,CCAGCTAG,-0.234
10,CTCAGGCA,0.0434
11,AGAAGAAG,-0.262
12,ATTGTCTA,-0.12
13,ATCTGATA,-0.148
14,GCAATCGC,0.0604
15,AATGGCTC,-0.272
16,CGTAGGCA,-0.0569
17,CTAATTGA,-0.0507
18,CCACAATA,-0.0735
19,ATATTAAC,0.0995
20,ATAACAAC,0.13
21,GCTCGTTA,-0.0351
22,CCTAACTC,0.0244
23,CAAACGTC,-0.0822
24,CTCTGCCA,-0.235
25,GCATACCC,0.019

row,Sequence,PBM E-score
1,CTCGGACA,0.233
2,ACACTGAA,-0.205
3,GCGACAAA,-0.0334
4,ATCTCAAA,-0.0367
5,GAACTGCA,-0.157
6,GATATCAA,-0.0352
7,CATGGGAG,-0.174
8,CAAGACTA,-0.234
9,GACTCCAA,-0.0167
10,TGTGGCAA,0.0162
11,CCTGACCA,-0.291
12,GCTACAGA,-0.183
13,CGCGGTAG,0.249
14,CAGACTTA,-0.303
15,AGATTGAA,0.0136
16,TCTCCGAA,0.154
17,AACATACC,0.123
18,ACAGGATA,-0.14
19,TCATACCA,-0.0581
